Molecules are shown by their SMILES.

One series in a line: Cells viability assay. The format is cell-based. The settings on record: African green monkey, Vero E6 cells.
A further series has as its target ACE2-RBD interaction (Homo sapiens, UniProt Q9BYF1). The series is described as follows: RBD-ACE2 binding assay, confocal co-localization in Calu-3 cells. The format is cell-based.
Another series deals with Mpro of SARS-CoV-2 (Severe acute respiratory syndrome coronavirus 2, UniProt P0DTD1). The series is described as follows: Main protease. The format is biochemical. As to conditions: read-out: inhibition of Mpro.
In series [1] the test system is cells infected with Wt-SARS-CoV-2.
Another series relates to DPP4. The settings on record: virus infected cells.

`N#C[C@@H]1C[C@@H]2C[C@@H]2N1C(=O)[C@@H](N)C12CC3CC(CC(O)(C3)C1)C2` [Saxagliptin, saxagliptin]: the CC50 (commonly the concentration that lowers cell viability or growth by half) at 48 h in the series “Cells viability assay” came to 21.1 µM.
Still for that read-out and setting: to `N#C[C@@H]1CCCN1C(=O)CNC12CC3CC(CC(O)(C3)C1)C2` [Vildagliptin, vildagliptin] belongs 131 µM.
In the series “Cells viability assay”, `N[C@@H](CC(=O)N1CCn2c(nnc2C(F)(F)F)C1)Cc1cc(F)c(F)cc1F` [Sitagliptin, sitagliptin] returned a CC50 at 48 h of 67.4 µM. Also, the “interaction of ACE2 with RBD (confocal)” value on ACE2-RBD interaction is on record as “hampered the interaction of ACE2 with RBD”. The inhibition (in general, the share of the control response that was lost under treatment) at 100 µM at Mpro of SARS-CoV-2 was 21.45 ± 0.13%. Also, in series [1], the “viable virus infected cells after treatment” value is reported as “Around 90%”.
In turn, `CN(C)C(=N)N=C(N)N` [Metformin, metformin] came in with a CC50 at 48 h in “Cells viability assay” of 46.3 µM.
For the compound `CCC(CC)COC(=O)[C@H](C)N[P@](=O)(OC[C@H]1O[C@@](C#N)(c2ccc3c(N)ncnn23)[C@H](O)[C@@H]1O)Oc1ccccc1` [Remdesivir, remdesivir], the “cellular DPP4 enzymatic activity in infected cells” value with DPP4 was “did not affect the DPP4 activity”.
`CC#CCn1c(N2CCC[C@@H](N)C2)nc2c1c(=O)n(Cc1nc(C)c3ccccc3n1)c(=O)n2C` [Linagliptin, linagliptin]: it took 21.3 µM to reach half-maximal cytotoxicity in the series “Cells viability assay” (CC50 at 48 h). Moreover, the “interaction of ACE2 with RBD (confocal)” value at ACE2-RBD interaction is on record as “hampered the interaction of ACE2 with RBD”. On Mpro of SARS-CoV-2, the inhibition at 100 µM was 31.5 ± 9.97%. Besides, in series [1], the “viable virus infected cells after treatment” value was “Around 90%”.

Values taken from paper PMC10293653 (International Journal of Biological Macromolecules, 2023).
